{
  "source": "a melting point compilation (Tetko et al.; mined from patent text by program, amines drawn as free bases though some values may be those of a salt)",
  "data": [
    {"units": {"melting point": "°C"}, "values": [
      {"smiles": "CC(=O)CCCCn1c(=O)c2c(ncn2Cc2ccccc2)n(C)c1=O", "melting point": "82 to 84"},
      {"smiles": "C=CCn1nc2c(F)cccc2c1-c1ccc(O)cc1O", "melting point": "69 to 70"},
      {"smiles": "CCCCCCc1nc2cnc3ccccc3c2n1CCCCN", "melting point": "171 to 172"}
    ]}
  ]
}
